# Assay results reported in article PMC6664820, “Novel natural and synthetic inhibitors of solute carriers SGLT1 and SGLT2” (Pharmacology Research & Perspectives, 2019).
# In all, about 1,900 compounds went through this assay and about 40 (2%) showed an effect of 50% or more. This is one part of the list.
# Target: human SGLT1 (hSGLT1) (human, UniProt P13866)
# Assay: primary screen, percent of control activity; higher = less effect of the substance
# Set-up: single well
# Conditions: 50 µM
# Summary of the method: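 Single-point screen at 50 µmol/L in CHO-hSGLT1 cells, with 160 µmol/L 1-NBD-glucose in glucose-free DMEM for 90 min at 37°C. Fluorescence from isopropanol extracts was calibrated, and CHO wild-type uptake was subtracted. Data are percent of uptake without compound.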
# human SGLT1 (hSGLT1), sequence (P13866 whole entry, looked up): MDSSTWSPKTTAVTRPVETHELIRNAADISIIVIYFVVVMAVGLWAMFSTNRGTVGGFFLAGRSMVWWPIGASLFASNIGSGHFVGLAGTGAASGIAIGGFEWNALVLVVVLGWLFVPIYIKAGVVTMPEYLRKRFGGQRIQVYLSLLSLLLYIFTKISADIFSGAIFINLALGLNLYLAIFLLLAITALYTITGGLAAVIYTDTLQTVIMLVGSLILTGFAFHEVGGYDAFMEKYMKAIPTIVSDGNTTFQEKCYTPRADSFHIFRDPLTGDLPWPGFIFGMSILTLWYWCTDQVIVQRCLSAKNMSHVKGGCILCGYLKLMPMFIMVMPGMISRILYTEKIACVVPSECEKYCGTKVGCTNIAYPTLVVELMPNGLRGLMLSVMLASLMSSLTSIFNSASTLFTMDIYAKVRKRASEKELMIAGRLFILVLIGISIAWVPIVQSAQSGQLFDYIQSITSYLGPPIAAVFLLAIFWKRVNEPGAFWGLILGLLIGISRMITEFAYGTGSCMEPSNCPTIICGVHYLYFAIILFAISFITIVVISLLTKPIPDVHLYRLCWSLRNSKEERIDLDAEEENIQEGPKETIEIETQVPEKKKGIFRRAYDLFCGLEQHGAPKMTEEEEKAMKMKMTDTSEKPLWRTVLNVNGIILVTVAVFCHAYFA
row,Structure (SMILES),NORMALIZED SGLT1 ACTIVITY (%)
1,CCn1cc(C(=O)O)c(=O)c2ccc(C)nc21,238%
2,CC(C)NCC(O)c1ccc2ccccc2c1.Cl (centres unmarked),153%
3,Cc1c(C)c2c(c(C)c1O)CCC(C)(CCCC(C)CCCC(C)CCCC(C)C)O2 (centres unmarked),185%
4,O=C(O)CNCP(=O)(O)O,101%
5,CC(CCC(=O)O)[C@H]1CCC2C3CC[C@@H]4CC(=O)CC[C@]4(C)C3C=C[C@@]21C (some centres unmarked),232%
6,CCN(CC)CCNC(=O)c1ccc(N)cc1.Cl,107%
7,CC(=O)O[C@H]1C[C@@H](OC(C)=O)C(C)(C)C2CC(=O)[C@]3(C)C(CC[C@@]4(C)[C@H](C(=O)O)OC(=O)C5OC543)[C@]21C (some centres unmarked),107%
8,Cl.c1ccc2c(c1)CN1CCCC1=N2,109%
9,Cn1c(=O)c2c(ncn2CCCl)n(C)c1=O,183%
10,COc1ccc(-c2cc(=O)c3c(O)cc(O[C@@H]4O[C@H](CO[C@H]5O[C@H](C)[C@@H](O)[C@H](O)[C@@H]5O)[C@@H](O)[C@H](O)[C@H]4O)cc3o2)cc1O,106%
11,Cc1occc(=O)c1/C=C/O,132%
12,CC(=O)OCC1=C(C(=O)[O-])N2C(=O)[C@@H](NC(=O)Cc3cccs3)[C@H]2SC1.[Na+],140%
13,CC(C(=O)O)c1ccc(N2Cc3ccccc3C2=O)cc1 (centres unmarked),137%
14,COc1ccc2c(c1OC)C(=O)O[C@@H]2[C@H]1c2cc3c(cc2CCN1C)OCO3,79%
15,CC(C)=CCCC1(C)C=Cc2c(O)c3c(c(CC=C(C)C)c2O1)OC12C(=CC4CC1C(C)(C)OC2(C/C=C(\C)C(N)=O)C4=O)C3=O (centres unmarked),119%
16,CC(C)CC(N(C)C)C1(c2ccc(Cl)cc2)CCC1.Cl (centres unmarked),28%
17,CC(C)CCCC(C)[C@H]1CCC2C3CC=C4C[C@@H](O)CC[C@]4(C)C3CC[C@@]21C (some centres unmarked),120%
18,CC(C)(C#N)O[C@@H]1O[C@H](CO)[C@@H](O)[C@H](O)[C@H]1O,83%
19,CC(=O)Oc1ccccc1C(=O)Oc1ccccc1C(=O)O,154%
20,CN1Cc2c(N)cccc2C(c2ccccc2)C1.O=C(O)/C=C\C(=O)O (centres unmarked),78%

row,Structure (SMILES),NORMALIZED SGLT1 ACTIVITY (%)
1,CC1(C)OC(=O)NC1=O,132%
2,C[C@@H]1[C@H]2[C@H](O[C@@H]3O[C@H](CO)[C@@H](O)[C@H](O)[C@H]3O)OC=C(C(=O)O)[C@H]2C[C@@H]1O,123%
3,CCN(CCO)CCCC(C)Nc1ccnc2cc(Cl)ccc12.O=S(=O)(O)O (centres unmarked),100%
4,Cc1ccc(S(=O)(=O)NC(=O)NN2CC3CCCC3C2)cc1 (centres unmarked),98%
5,COc1ccc(NS(=O)(=O)c2ccc(N)cc2)nn1,118%
6,O=C(CCBr)N1CCN(C(=O)CCBr)CC1,104%
7,OC[C@H]1O[C@@H](Oc2ccc(O)cc2)[C@H](O)[C@@H](O)[C@@H]1O,94%
8,C=C[C@H]1CN2CC[C@H]1C[C@@H]2[C@@H](OC(=O)OCC)c1ccnc2ccc(OC)cc12,128%
9,CC(CCC(=O)O)[C@H]1CCC2C3C(C[C@H](O)[C@@]21C)[C@@]1(C)CC[C@@H](O)C[C@H]1C[C@H]3O (some centres unmarked),89%
10,Cc1cc(=O)c2c(O)cc(O)c(C)c2o1,275%
11,CC(=O)Oc1cccc(O)c1,73%
12,C[C@]12CCC(=O)C=C1C=CC1C2CC[C@@]2(C)C1CC[C@@]2(O)CCC(=O)[O-].[K+] (some centres unmarked),146%
13,Cl.NCCS,142%
14,CO[C@@]1(NC(=O)Cc2cccs2)C(=O)N2C(C(=O)[O-])=C(COC(N)=O)CS[C@@H]21.[Na+],114%
15,COc1ccc(-c2coc3cc(O)ccc3c2=O)c(O)c1O,166%
16,CCCCN1CCCCC1C(=O)Nc1c(C)cccc1C.Cl (centres unmarked),42%
17,CCOC(=O)[C@H](CCc1ccccc1)N[C@H]1CCc2ccccc2N(CC(=O)O)C1=O.Cl,96%
18,O=C(O)CCCc1ccccc1,451%
19,CC(=O)N[C@@H](CCC(=O)O)C(=O)O,90%
20,CC(=O)Oc1cc2c(c(C)c1OC(C)=O)CC1OC13[C@@]2(C)CC[C@@]1(C)C2C[C@](C)(C(=O)O)CC[C@]2(C)CC[C@]31C (some centres unmarked),204%

row,Structure (SMILES),NORMALIZED SGLT1 ACTIVITY (%)
1,CCCC(=O)Nc1ncnc2c1ncn2[C@@H]1O[C@@H]2COP(=O)(O)O[C@H]2[C@H]1OC(=O)CCC,112%
2,CC(=O)C1CCC2C3CC(=O)C4=CC(=O)CCC4(C)C3CCC12C (centres unmarked),120%
3,CN1CCC(=C2c3ccccc3Sc3ccccc32)CC1.O=C(O)/C=C\C(=O)O,36%
4,CC(=O)O[C@H]1CCC2(C)C3=C(CCC2C1(C)C)[C@@]1(C)CC[C@@H](C(C)CCC=C(C)C)[C@]1(C)CC3 (some centres unmarked),207%
5,ClC(Cl)=C(c1ccc(Cl)cc1)c1ccc(Cl)cc1,84%
6,Oc1nc2cc(Cl)c(Cl)cc2nc1O,196%
7,COc1ccc2c(c1OC)C(=O)O[C@H]2[C@H]1c2c(cc3c(c2OC)OCO3)CCN1C.Cl,110%
8,CC(=O)OC/C=C(C)/C=C/C=C(C)/C=C/C1=C(C)CCCC1(C)C,186%
9,CCC(/C=C/[C@@H](C)[C@H]1CCC2C3CC=C4C[C@@H](O)CC[C@]4(C)C3CC[C@@]21C)C(C)C (some centres unmarked),103%
10,CC(=O)O.N=C(N)NCCC[C@@H](NC(=O)[C@@H](N)Cc1ccc(O)cc1)C(=O)O,79%
11,Cl.NCC(O)c1ccc(O)cc1 (centres unmarked),126%
12,O=C(CC(=O)c1ccccc1)c1ccccc1,107%
13,Cc1ncc([N+](=O)[O-])n1CCO,95%
14,COc1ccc(CCC(=O)c2c(O)cc(O[C@@H]3O[C@H](CO)C(O)[C@H](O)C3O[C@@H]3O[C@@H](C)[C@H](O)[C@@H](O)[C@H]3O)cc2O)cc1O (some centres unmarked),143%
15,Cc1cccc(CN2CCN(C(c3ccccc3)c3ccc(Cl)cc3)CC2)c1.Cl.Cl (centres unmarked),133%
16,Clc1ccc(C(c2ccc(Cl)cc2)C(Cl)(Cl)Cl)cc1,86%
17,Cl.O=C(COc1ccc(Cl)cc1)N1CCN(Cc2ccc3c(c2)OCO3)CC1,127%
18,Cc1cc2c(C(C)C)c(O)c(O)c(C=O)c2c(O)c1-c1c(C)cc2c(C(C)C)c(O)c(O)c(C=O)c2c1O,62%
19,Oc1c(I)cc(I)c2cccnc12,97%
